PubChem BioAssay AID588855 (National Center for Advancing Translational Sciences (NCATS), 2011)
Where “and” joins values, the source holds several entries; their conditions need not be identical. Equal entries are not always repeated. Screen size: about 410,000 compounds; about 5,000 (1.2%) were called active. Inconclusive means that the source gave no clear call. Such entries were picked first, then a sample of the others. Calls follow the shape of the dose curve; as a rule, active = well fitted inhibition curve with a large enough effect; inconclusive = small, poorly fitted or top-dose-only effect; inactive = no such curve, though single readings can be large or run the other way. Potencies beside an inconclusive call are fits to weak or partial responses and may not hold up.

assay: qHTS for Inhibitors of TGF-b; conditions: HepG2 CAGA-GFP TGF-b/SMAD3 reporter, GFP fluorescence, 18 h, TGF-beta stimulated, 500 pg/mL final; series mostly up to 46.1 µM; activity, negative = inhibition: at the top concentration; also: nearly all actives have a fitted effect of over 65% in size
Method in brief: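 Using HEPG2 CAGA-GFP reporter cells at 1000 cells/well, we pinned test compounds, stimulated with recombinant TGF-beta (500 pg/mL final) and measured total well GFP after 18 h.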
% is scaled to controls: 0 for no effect and ±100 for the full control effect; potency is read from the fitted curve at half-maximal effect; tags tell the direction and shape of the fitted curve.

Row | SMILES | Potency | activity, negative = inhibition
1 | Cc1cccc(-c2ccc3[nH]c4c(c3c2)CCN2C[C@@H]([C@H](C)O)[C@@H](N(C)C(=O)NC3CCCCC3)C[C@@H]42)c1 | inconclusive: 35.5 µM [inhibitor, single point] | 
2 | Cc1nnc(C)n1/N=C/c1ccccn1 | inconclusive: 35.5 µM [inhibitor, single point] | 
3 | O=c1cc(-c2ccccc2)n(S(=O)(=O)c2ccc3ccccc3c2)o1 |  | inactive: -6.78%
4 | Cc1cc2cc(C(c3nnnn3Cc3ccco3)N3CCc4ccccc4C3)c(=O)[nH]c2cc1C (centres undefined) | inconclusive: 10 µM [inhibitor, single point] | 
5 | Cc1csc(NC(=O)c2cc3c(s2)-c2ccccc2OC3)n1 | inconclusive: 3.55 µM [inhibitor, single point] | 
6 | CCCOc1ccc(CNC(=S)N/N=C/c2ccc([N+](=O)[O-])cc2)cc1 | inconclusive: 6.31 µM [inhibitor, single point] | 
7 | COc1cc(CNCCc2c[nH]c3ccccc23)ccc1OCc1ccccc1F | inconclusive: 15.8 µM [inhibitor, partial curve, poor fit] | 
8 | C=CCOc1c(Br)cc(/C=N/NC(N)=O)cc1OC | inconclusive: 3.55 µM [inhibitor, single point] | 
9 | CCOc1cc(-c2cc(-c3ccc(C)cc3)nc(N)c2C#N)ccc1O | inconclusive: 25.1 µM [inhibitor, single point] | 
10 | Cc1ccc(-n2ncc3c2CC(C)(C)CC3NC(=O)c2ccncc2)cc1 (centres undefined) |  | inactive: -2.1%
11 | Cc1cc(C)n2c(SCc3cccs3)nnc2n1 |  | inactive: 13.4%
12 | O=C(CN1CCN(S(=O)(=O)c2ccc(Br)cc2)CC1)Nc1ccc2c(c1)OCO2 | inconclusive: 12.6 µM [inhibitor, partial curve, poor fit] | 
13 | COc1cc(C2C(C#N)=C(N)N(c3ccc(F)cc3)C3=C2S(=O)(=O)CC3)ccc1O (centres undefined) |  | inactive: 2.37%
14 | Cn1c(C(O)c2ccc(Cl)cc2)nc(Cl)c1Cl (centres undefined) |  | inactive: -23.1%
15 | COc1ccc(S(=O)(=O)NCC(c2ccco2)S(=O)(=O)c2cccs2)cc1F (centres undefined) | inconclusive: 7.08 µM [inhibitor, full curve, poor fit] | 
16 | Cc1cccc(-c2nc3c(cnn3-c3ccccc3)c(=O)n2-c2ccc(Cl)cc2)c1 | inconclusive: 6.31 µM [inhibitor, partial curve, poor fit] | 
17 | Cc1cccc2nc(CSCc3ccco3)cn12 | inconclusive: 5.62 µM [inhibitor, single point] | 
18 | O=C(COC(=O)/C=C/c1cccc(Cl)c1)NC1CCCC1 |  | inactive: -1.07%
19 | Cc1ccc(CCNC(=O)C2CCN(S(=O)(=O)c3ccc4c(ccn4C)c3)CC2)cc1 | inconclusive: 3.16 µM [inhibitor, full curve] | 
20 | O=C(N[C@@H](Cc1ccccc1)C(=O)N1CCC2(CC1)NCCc1[nH]cnc12)c1cccc(Br)c1 | inconclusive: 17.8 µM [inhibitor, single point] | 
21 | Cc1cc(NC(=O)c2ccc([N+](=O)[O-])cc2)no1 |  | inactive: 8.99%
22 | CCN1CCN(Cc2ccc(NC(=O)c3ccc(C)c(NC(=O)c4c[nH]c5cc(C(F)(F)F)ccc5c4=O)c3)cc2C(F)(F)F)CC1 | active: 11.2 µM | 
23 | O=C(/C=C/Nc1cccc(O)c1)c1ccccc1 |  | inactive: -3.85%

Row | SMILES | Potency | activity, negative = inhibition
24 | Cc1ccc(CNC(=O)CSc2nc3ccccc3nc2Cc2ccc(C)cc2)cc1 |  | inactive: 2.2%
25 | CCCCCCC[n+]1c(/C=C/c2ccc(N(C)C)cc2)sc2ccccc21 | inconclusive: 7.94 µM [inhibitor, partial curve, poor fit] | 
26 | COc1ccc(NC(=O)Nc2cccc(C(F)(F)F)c2)cn1 | inconclusive: 25.1 µM [inhibitor, single point] | 
27 | Oc1c(CN2CCOCC2)cc(COCc2ccccc2)c2cccnc12 | active: 1 µM | 
28 | COc1ccccc1CNC(=O)CCCCn1c(=O)c2ccccc2n(Cc2ccccc2F)c1=O |  | inactive: 2.35%
29 | CC(=O)Nc1ccccc1NS(=O)(=O)c1ccc(Cl)cc1 | inconclusive: 0.0891 µM [inhibitor, full curve, poor fit] | 
30 | CCn1ccnc1CN(C)Cc1cn[nH]c1-c1ccc(OC)c(F)c1 |  | inactive: 0.26%
31 | Cc1nnsc1C(=O)NNS(=O)(=O)c1cc(C(F)(F)F)cc(C(F)(F)F)c1 |  | inactive: -19.2%
32 | Cn1c(=O)n(C)c2cc(N3CCOCC3)c(NS(=O)(=O)c3cccc(C#N)c3)cc21 |  | inactive: -0.856%
33 | COC1=CC(=O)C=C(OC)C1=O | inconclusive: 25.1 µM [inhibitor, single point] | 
34 | Cc1cc(C)c2nc(-c3ccccn3)cc(C(=O)Nc3ccc(S(=O)(=O)Nc4cc(C)on4)cc3)c2c1 | inconclusive: 8.91 µM [inhibitor, partial curve] | 
35 | O=C(Nc1cccc(S(=O)(=O)N2CCOCC2)c1)c1cc(S(=O)(=O)N2CCOCC2)c(Cl)cc1Cl |  | inactive: -19.4%
36 | CN(CCc1ccccn1)C(=O)CN(C)S(=O)(=O)c1ccc2c(c1)c(=O)n(C)c(=O)n2C | inconclusive: 35.5 µM [inhibitor, single point] | 
37 | Nc1ccc2oc(-c3cc(Br)ccc3Cl)nc2c1 | inconclusive: 3.98 µM [inhibitor, full curve, poor fit] | 
38 | NS(=O)(=O)c1ccc(NC(=O)NC2CC(=O)N(c3ccc4c(c3)OCCO4)C2)cc1 (centres undefined) |  | inactive: 1.08%
39 | CCCOC(=O)c1cc(-c2ccc(/C=C3/C(=O)N(C)C(=O)C(C#N)=C3C)o2)ccc1Cl | inconclusive: 35.5 µM [inhibitor, single point] | 
40 | Nc1cccc2c1C(=O)N(CCOc1ccccc1F)C2=O |  | inactive: 22.4%
41 | CC(=O)c1cccc(-c2cnc3c(NC=O)cc(-c4cccc(C(=O)N(C)C)c4)cn23)c1 | inconclusive: 3.55 µM [inhibitor, single point] | 
42 | CC(=O)N1CCN(CC(=O)Nc2sccc2C#N)CC1 | inconclusive: 35.5 µM [inhibitor, single point] | 
43 | Cc1cc(Br)cn2c(Cc3cccc(F)c3)c(-c3ccccc3)nc12 | inconclusive: 11.2 µM [inhibitor, single point] | 
44 | CC/C(=N\NC(=O)c1cccnc1)c1ccc2c(c1)OCCO2 | inconclusive: 0.501 µM [inhibitor, partial curve, poor fit] | 
45 | Cc1ccc2nc(N(CCCN(C)C)C(=O)COc3ccc(Cl)cc3)sc2c1 | inconclusive: 35.5 µM [inhibitor, single point] | 
46 | CN1CCN(CC(O)COc2ccc(C34CC5CC(CC(C5)C3)C4)cc2)CC1 (centres undefined) | inconclusive: 35.5 µM [inhibitor, single point] | 

Row | SMILES | Potency | activity, negative = inhibition
47 | CC(=O)c1c(C)[nH]c(C(=O)OCC(=O)Nc2cccnc2Cl)c1C |  | inactive: -0.378%
48 | Oc1ccccc1CN(Cc1ccco1)CC(O)COCc1ccc(Cl)cc1 (centres undefined) | inconclusive: 35.5 µM [inhibitor, single point] | 
49 | COc1ccc(-c2nc(CSCC(=O)NCc3ccccc3Cl)c(C)o2)cc1OC | inconclusive: 28.2 µM [inhibitor, single point] | 
50 | CC(=O)Nc1ccc(S(=O)(=O)NC(CC(=O)NC2CCCCC2C)C(C)C)cc1 (centres undefined) | inconclusive: 1.78 µM [inhibitor, full curve, poor fit] | 
51 | O=C(NCCCCNC(=O)c1ccco1)c1ccco1 |  | inactive: -4.31%
52 | O=C(Nc1ccncc1)c1c(Cl)cccc1Cl | inconclusive: 25.1 µM [inhibitor, single point] | 
53 | Cc1ccc(-c2cn(-c3ccccc3)c3[n+]2CCCS3)cc1 | inconclusive: 10 µM [inhibitor, partial curve, poor fit] and inconclusive: 35.5 µM [inhibitor, single point] | 
54 | O=C(CN1CCCC1)Nc1ccc(-c2nc3cc(NC(=O)CN4CCCC4)ccc3o2)cc1 | inconclusive: 10 µM [inhibitor, partial curve, poor fit] | 
55 | CC(C)(C)OC(=O)NCCCC[C@H](NC(=O)c1[nH]cnc1C(=O)Nc1ccc(Cl)cc1)C(=O)OC(C)(C)C | active: 14.1 µM | 
56 | CCCOc1ccccc1OCC(=O)N1CCN(S(=O)(=O)c2ccc(Cl)cc2)CC1 | inconclusive: 11.2 µM [inhibitor, single point] | 
57 | CC(C)c1ccc(Nc2c(-c3ccccn3)nc3ccccn23)cc1 | inconclusive: 12.6 µM [inhibitor, partial curve, poor fit] | 
58 | Cc1onc(-c2c(Cl)cccc2Cl)c1C(=O)N1CCOCC1 |  | inactive: -8.72%
59 | CN1C(=S)N(c2cccnc2)C(=O)/C1=C\c1ccc(N(C)C)cc1 | inconclusive: 35.5 µM [inhibitor, single point] | 
60 | Cc1occc1C(=O)N1CCCC(Nc2ccc(C(C)C)cc2)C1 (centres undefined) | inconclusive: 15.8 µM [inhibitor, single point] | 
61 | Cc1onc(-c2ccccc2Cl)c1C(=O)c1ccccc1 |  | inactive: 4.35%
62 | O=C(/C=C/c1ccccc1)Nc1cccc(C(=O)NCCCCc2ccccc2)c1 |  | inactive: 2.41%
63 | COc1ccc(-c2noc(CNC(=O)COc3cccc(C)c3C)n2)cc1 | inconclusive: 0.112 µM [inhibitor, full curve, poor fit] | 
64 | COc1ccc(NC(=O)CN2CCC(n3c(C)nc4cc(F)ccc43)CC2)c(OC)c1 |  | inactive: 0.258%
65 | O=C(Nc1ccc(F)cc1)c1nsc(Cl)c1Cl | inconclusive: 11.2 µM [inhibitor, partial curve] | 
66 | COc1ccc(Nc2nc3ccccc3n3cnnc23)cc1 | inconclusive: 35.5 µM [inhibitor, single point] | 
67 | c1ccc(CN2CCC(Nc3nc(-c4cccnc4)nc4ccccc34)CC2)cc1 | active: 15.8 µM | 
68 | CCc1ccc(C(=O)CC2(O)C(=O)N(CCc3ccccc3)c3ccc(Cl)cc32)cc1 (centres undefined) | active: 12.6 µM | 
69 | CC(Oc1ccccc1F)C(=O)NNC(=O)c1cc2ccccc2o1 (centres undefined) | inconclusive: 1 µM [inhibitor, full curve] | 
